# The supplement of paper PMC8728848
# This is one part of the list.
# B1: FaeGac (Escherichia coli) (protein)
# chain: WMTGDFNGSVDIGGSITADDYRQKWEWKVGTGLNGFGNVLNDLTNGGTKLTITVTGNKPILLGRTKEAFATPVTGGVDGIPHIAFTDYEGASVVLRNPDGETNKKGLAYFVLPMKNAEGTKVGSVKVNASYAGVLGRGGVTSADGELLSLFADGLSSIFYGGLPRGSELSAGSAAAERTKLFGSLSRNDILGQIQRVNANITSLVDVAGSYRENMEYTDGTVVSAAYALGIANGQTIEATFNQAVTTSTQWSAPLNVAITYY
# Tests used:
# Test in all cases: glycan array binding signal (z-score within array); higher = stronger binding
# Conditions in all cases: glycan notation: IUPAC condensed, linker removed
# [1] = target: Neu5Ac(a2-3)Gal(b1-3)[Neu5Ac(a2-6)]GalNAc
# In short: (§1)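 Arrays were curated from the Consortium for Functional Glycomics database, 3228 in total, and kept only where the protein sequence was available. Binding is expressed as a within-array Z-score. This score was averaged across arrays of the same protein sequence at different concentrations or buffers and across linkers, and negative values can be read as non-binding.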
# Neu5Ac(a2-3)Gal(b1-4)Glc = target: Neu5Ac(a2-3)Gal(b1-4)Glc
# In short: as §1
# [2] = target: Neu5Ac(a2-3)Gal(b1-4)GlcNAc
# In short: as §1
# [3] = target: Neu5Ac(a2-3)Gal(b1-4)GlcNAc(b1-2)Man(a1-3)[Neu5Ac(a2-3)Gal(b1-4)GlcNAc(b1-2)Man(a1-6)]Man(b1-4)GlcNAc(b1-4)GlcNAc
# In short: as §1
# [4] = target: Neu5Ac(a2-3)Gal(b1-4)GlcNAc(b1-3)Gal(b1-4)GlcNAc
# In short: as §1
# [5] = target: Neu5Ac(a2-3)Gal(b1-4)GlcNAc(b1-3)Gal(b1-4)GlcNAc(b1-3)Gal(b1-4)GlcNAc
# In short: as §1
# [6] = target: Neu5Ac(a2-3)Gal(b1-4)GlcNAc(b1-3)Gal(b1-4)[Fuc(a1-3)]GlcNAc
# In short: as §1
# [7] = target: Neu5Ac(a2-3)Gal(b1-4)GlcNAc6S
# In short: as §1
# [8] = target: Neu5Ac(a2-3)Gal(b1-4)[Fuc(a1-3)]GlcNAc
# In short: as §1
# [9] = target: Neu5Ac(a2-3)Gal(b1-4)[Fuc(a1-3)]GlcNAc(b1-3)Gal
# In short: as §1
# [10] = target: Neu5Ac(a2-3)Gal(b1-4)[Fuc(a1-3)]GlcNAc(b1-3)Gal(b1-4)GlcNAc
# In short: as §1
# [11] = target: Neu5Ac(a2-3)Gal(b1-4)[Fuc(a1-3)]GlcNAc(b1-3)Gal(b1-4)[Fuc(a1-3)]GlcNAc(b1-3)Gal(b1-4)[Fuc(a1-3)]GlcNAc
# In short: as §1
# [12] = target: Neu5Ac(a2-3)Gal(b1-4)[Fuc(a1-3)]GlcNAc6S
# In short: as §1
# [13] = target: Neu5Ac(a2-3)Gal6S(b1-4)GlcNAc
# In short: as §1
# [14] = target: Neu5Ac(a2-3)Gal6S(b1-4)[Fuc(a1-3)]GlcNAc
# In short: as §1
# Neu5Ac(a2-3)GalNAc = target: Neu5Ac(a2-3)GalNAc
# In short: as §1
# [15] = target: Neu5Ac(a2-3)GalNAc(b1-4)GlcNAc
# In short: as §1
# [16] = target: Neu5Ac(a2-3)[GalNAc(b1-4)]Gal(b1-4)Glc
# In short: as §1
# [17] = target: Neu5Ac(a2-3)[GalNAc(b1-4)]Gal(b1-4)GlcNAc
# In short: as §1
# [18] = target: Neu5Ac(a2-3)[Neu5Ac(a2-6)]GalNAc
# In short: as §1
# Neu5Ac(a2-6)Gal = target: Neu5Ac(a2-6)Gal
# In short: as §1
# Neu5Ac(a2-6)Gal(b1-4)Glc = target: Neu5Ac(a2-6)Gal(b1-4)Glc
# In short: as §1
# [19] = target: Neu5Ac(a2-6)Gal(b1-4)GlcNAc
# In short: as §1
# [20] = target: Neu5Ac(a2-6)Gal(b1-4)GlcNAc(b1-3)Gal(b1-4)GlcNAc
# In short: as §1
# [21] = target: Neu5Ac(a2-6)Gal(b1-4)GlcNAc(b1-3)Gal(b1-4)[Fuc(a1-3)]GlcNAc(b1-3)Gal(b1-4)[Fuc(a1-3)]GlcNAc
# In short: as §1
# [22] = target: Neu5Ac(a2-6)Gal(b1-4)GlcNAc6S
# In short: as §1
# Neu5Ac(a2-6)GalNAc = target: Neu5Ac(a2-6)GalNAc
# In short: as §1
# [23] = target: Neu5Ac(a2-6)GalNAc(b1-4)GlcNAc
# In short: as §1
# Neu5Ac(a2-8)Neu5Ac = target: Neu5Ac(a2-8)Neu5Ac
# In short: as §1
# [24] = target: Neu5Ac(a2-8)Neu5Ac(a2-3)Gal(b1-4)Glc
# In short: as §1
# [25] = target: Neu5Ac(a2-8)Neu5Ac(a2-3)[GalNAc(b1-4)]Gal(b1-4)Glc
# In short: as §1
# [26] = target: Neu5Ac(a2-8)Neu5Ac(a2-8)Neu5Ac
# In short: as §1
# [27] = target: Neu5Ac(a2-8)Neu5Ac(a2-8)Neu5Ac(a2-3)Gal(b1-4)Glc
# In short: as §1
# [28] = target: Neu5Ac(a2-8)Neu5Ac(a2-8)Neu5Ac(a2-3)[GalNAc(b1-4)]Gal(b1-4)Glc
# In short: as §1
# [29] = target: Neu5Ac(a2-8)Neu5Ac(a2-8)Neu5Ac(a2-8)Neu5Ac(a2-3)[GalNAc(b1-4)]Gal(b1-4)Glc
# In short: as §1
# Neu5Ac(b1-6)GalNAc = target: Neu5Ac(b1-6)GalNAc
# In short: as §1
# [30] = target: Neu5Ac(b2-6)Gal(b1-4)GlcNAc
# In short: as §1
# [31] = target: Neu5Ac9Ac(a2-6)Gal(b1-4)GlcNAc
# In short: as §1
# [32] = target: Neu5Gc(a2-3)Gal(b1-3)GlcNAc
# In short: as §1
# [33] = target: Neu5Gc(a2-3)Gal(b1-3)[Fuc(a1-4)]GlcNAc
# In short: as §1
# Neu5Gc(a2-3)Gal(b1-4)Glc = target: Neu5Gc(a2-3)Gal(b1-4)Glc
# In short: as §1
# [34] = target: Neu5Gc(a2-3)Gal(b1-4)GlcNAc
# In short: as §1
# [35] = target: Neu5Gc(a2-3)Gal(b1-4)[Fuc(a1-3)]GlcNAc
# In short: as §1
# [36] = target: Neu5Gc(a2-6)Gal(b1-4)GlcNAc
# In short: as §1
# Neu5Gc(a2-6)GalNAc = target: Neu5Gc(a2-6)GalNAc
# In short: as §1
binder,measurement,setting,value
B1,glycan array binding signal (z-score),[1],-0.688
same,glycan array binding signal (z-score),Neu5Ac(a2-3)Gal(b1-4)Glc,-0.079
same,glycan array binding signal (z-score),[2],-0.399
same,glycan array binding signal (z-score),[3],0.176
same,glycan array binding signal (z-score),[4],-0.28
same,glycan array binding signal (z-score),[5],0.035
same,glycan array binding signal (z-score),[6],0.223
same,glycan array binding signal (z-score),[7],-0.423
same,glycan array binding signal (z-score),[8],-0.227
same,glycan array binding signal (z-score),[9],-0.588
same,glycan array binding signal (z-score),[10],-0.546
same,glycan array binding signal (z-score),[11],-0.333
same,glycan array binding signal (z-score),[12],-0.095
same,glycan array binding signal (z-score),[13],-0.634
same,glycan array binding signal (z-score),[14],-0.693
same,glycan array binding signal (z-score),Neu5Ac(a2-3)GalNAc,-0.665
same,glycan array binding signal (z-score),[15],-0.657
same,glycan array binding signal (z-score),[16],0.008
same,glycan array binding signal (z-score),[17],0.339
same,glycan array binding signal (z-score),[18],-0.177
same,glycan array binding signal (z-score),Neu5Ac(a2-6)Gal,-0.568
same,glycan array binding signal (z-score),Neu5Ac(a2-6)Gal(b1-4)Glc,-0.173
same,glycan array binding signal (z-score),[19],-0.423
same,glycan array binding signal (z-score),[20],-0.698
same,glycan array binding signal (z-score),[21],-0.258
same,glycan array binding signal (z-score),[22],0.107
same,glycan array binding signal (z-score),Neu5Ac(a2-6)GalNAc,-0.15
same,glycan array binding signal (z-score),[23],-0.322
same,glycan array binding signal (z-score),Neu5Ac(a2-8)Neu5Ac,-0.531
same,glycan array binding signal (z-score),[24],-0.55
same,glycan array binding signal (z-score),[25],-0.451
same,glycan array binding signal (z-score),[26],-0.754
same,glycan array binding signal (z-score),[27],-0.622
same,glycan array binding signal (z-score),[28],0.292
same,glycan array binding signal (z-score),[29],-0.318
same,glycan array binding signal (z-score),Neu5Ac(b1-6)GalNAc,0.084
same,glycan array binding signal (z-score),[30],-0.697
same,glycan array binding signal (z-score),[31],-0.151
same,glycan array binding signal (z-score),[32],-0.004
same,glycan array binding signal (z-score),[33],-0.407
same,glycan array binding signal (z-score),Neu5Gc(a2-3)Gal(b1-4)Glc,-0.764
same,glycan array binding signal (z-score),[34],-0.637
same,glycan array binding signal (z-score),[35],-0.623
same,glycan array binding signal (z-score),[36],-0.753
same,glycan array binding signal (z-score),Neu5Gc(a2-6)GalNAc,-0.175
